Assay results from PubChem BioAssay AID1963576 (National Center for Advancing Translational Sciences (NCATS), 2024).
Hit rate of the full screen: of about 46,000 compounds, about 60 (0.1%) were called active. Not shown: some 3% with an inconclusive outcome. The call rests on the fitted dose curve; in most records, active means well fitted inhibition curve with a large enough effect; inconclusive means small, poorly fitted or top-dose-only effect; inactive means no such curve, though single readings can be large or run the other way. The list shows a part of the results.

Test: Primary qHTS assay for Inhibitors of ovarian cancer metastasis using an organotypic tumor microenvironment (TME) model. Further: nearly all actives have a fitted effect of over 65% in size.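 On activity change, negative = inhibition: plate controls were DMSO wells for no effect and tomatine positive control wells for full effect.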
Settings: SKOV3ip1-GFP adhesion/invasion on 3D omental model, fluorescence; series mostly up to 45.8 µM; activity change, negative = inhibition: at the top concentration
Procedure, shortened: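 A 3D layer of primary human omental fibroblasts, mesothelial cells, fibronectin and collagen I, grown 48 hr, received SKOV3ip1-GFP cells in serum-free medium plus compounds at 0.36-46 umol/L. After 2 hr RT and 16 hr 37 C, fixed adherent GFP cells were counted; normalized to DMSO and tomatine.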

Activity change, negative = inhibition, inactive:
O=C(COc1ccc(Cl)cc1)OCc1cc(=O)n2nc(-c3cccs3)sc2n1 9.63%, CC(C)n1c(=N)c(C(=O)NCc2cccnc2)cc2c(=O)n3ccccc3nc21 -15%, CCC(CC)C(=O)Nc1ccc(-c2cn3cccnc3n2)cc1 -26.2%, Cc1cccc(-c2nc3scc(CCNC(=O)c4ccc(Br)o4)n3n2)c1 5.87%, Nc1nc2c(c(=O)[nH]1)N(C=O)[C@H](CNc1ccc(C(=O)N[C@@H](CCC(=O)O)C(=O)O)cc1)CN2 0.33%, CNC(=O)C1CCC(Cn2c(=O)c3sccc3n(CC(=O)NCc3cccc(OC)c3)c2=O)CC1 (configuration not stated) -2.61%, COc1cccc(C(=O)N2CCc3c([nH]c4ccccc34)C2c2ccc(SC)cc2)c1 (configuration not stated) 0.43%, COc1ccccc1NC(=O)CSc1nnc2c3ccccc3n(C(C)C)c2n1 -8.13%, CCOC(=O)N1CCN(c2ncc3c(n2)CC(c2ccccc2O)CC3=O)CC1 (configuration not stated) 1.6%, COc1ccc(CCNC(=O)CCc2c(C)nc3cc(-c4ccccc4OC)nn3c2C)c(OC)c1 7.91%, COc1ccc(CNC(=O)CN2C(=O)COc3ccc(S(=O)(=O)NC4CCCC4)cc32)cc1 -3.7%, CCn1c(=O)c2cc(C(=O)N(CC(C)C)CC(C)C)sc2c2ccccc21 6.19%, CCOC(=O)c1cccc(NC(=O)Cn2c(=O)nc(-c3ccccc3F)c3cc(Cl)ccc32)c1 -9.46%, COc1cccc(CNC(=O)CCCN2C(=O)CCn3nc(-c4cccn4C)cc32)c1 2.63%, Cc1ccc2nc(CSc3nnc(NC(=O)c4cccc(Br)c4)s3)cc(=O)n2c1 8.58%, CCN(C(=O)CSc1nc2ccccc2n1CC(=O)NCc1ccc(OC)cc1)c1ccccc1 11.1%, Cc1ccc(CNc2ncnc3c2nc2n3CCCC2)cc1 24.9%, COc1ccc(NC(=O)CC2C(=O)N(c3ccc(F)cc3)C(=O)N2Cc2ccc3c(c2)OCO3)cc1 (configuration not stated) 7.11%, COc1ccc(-c2c(C)nn3c(N4CCN(c5ccccc5)CC4)cc(C)nc23)cc1OC -0.308%, COc1ccc(/C=C(/C#N)c2nc(-c3ccc(-c4ccccc4)cc3)cs2)cc1OC 1.81%, CCCn1c(=N)c(C(=O)NC2CCCC2)cc2c(=O)n3cccc(C)c3nc21 -2.83%, COc1cc(NC(=O)CCn2cnc3ccccc3c2=O)cc(OC)c1 -2.27%, CCOC(=O)c1ccccc1NC(=O)n1ncc2cc(Cl)ccc21 14%, CCc1cccc(C)c1NC(=O)c1cc(S(=O)(=O)N2CCOCC2)cn1C 6.77%, COc1ccc(OCCn2c(C)nc3cc(C)c(C)cc32)cc1 -10.3%, CCOc1cccc(C(=O)Nc2ccc3oc(-c4cccnc4)nc3c2)c1 15.4%, CN1C(=O)c2ccccc2Sc2ccc(NC(=O)N3CCN(c4ccccc4F)CC3)cc21 11.2%, CCCOc1ccc(C(=O)Nc2cc(-c3nc4cc(C)cc(C)c4o3)ccc2C)cc1 -2.7%, Cc1ccc(-c2noc(-c3ccc(N4CCCCC4)c([N+](=O)[O-])c3)n2)cc1 0.523%, CC(C)NC(=O)C1CCN(C(=O)N2CCOc3ccc(Cl)cc32)CC1 0.763%, Clc1ccc(CCNC(c2nnc(-c3ccccc3)o2)c2ccccc2Cl)cc1 (configuration not stated) -9.76%, CCOC(=O)c1c(NC(=O)c2cc(=O)c3c(C)cc(C)cc3o2)sc(C(C)=O)c1C -1.03%, CC(=O)Nc1nonc1-c1nnc(SCc2ccc(Cl)cc2)n1C -8.04%, COc1cc(-c2noc(-c3cc(C(C)C)[nH]n3)n2)cc(OC)c1OC -5.95%, Cc1cc(C)c2c(-n3cccc3)c(C(=O)NCCCN3CCCCC3C)sc2n1 (configuration not stated) -8.98%, CCc1ccccc1Nc1ncnc2c1nc1n2CCCC1 3.06%, NS(=O)(=O)c1ccc(CCNC(=O)c2nc(SCc3ccccc3F)ncc2Cl)cc1 -1.91%, COc1cccc(N2C(=O)N(CC(=O)NCc3cccc(OC)c3OC)c3ccccc3S2(=O)=O)c1 8.83%, Cc1cc(=O)c2cc(C(=O)Nc3ccccc3)ccc2[nH]1 9.22%, Cc1ccc2cccc(NC(=O)c3ccc(-c4ccc(Br)cc4)o3)c2n1 11.8%, CCCNC(=O)c1cnc2sc(N3CCCCC3)nn2c1=O 3.95%, COc1ccc2oc(=O)c(C(=O)NCCc3c(C)[nH]c4ccc(Br)cc34)cc2c1 5.97%, O=C(CSc1nnc(CNC(=O)c2ccccc2)n1-c1cccc(Cl)c1)Nc1ccccc1F -11.8%, CCOC(=O)c1c(C)oc2nc(C)nc(N3CCN(c4ccccc4)CC3)c12 14.5%, COc1ccccc1N1CCN(C(=O)CCS(=O)(=O)c2cc(Br)cc3c2N(C(=O)C2CC2)CC3)CC1 -7.28%, O=C(Nc1ccc(F)cc1)c1cccn1-c1nnc(N2CCCCC2)s1 -4.96%, CCc1ccc(NC(=O)CSc2cn(CC(=O)N3CCCC3)c3ccccc23)cc1 -5.84%, COc1ccc(CNC(=O)c2ccc(Cn3c(=O)c4cccn4c4cccnc43)cc2)cc1OC 5.29%, O=C(Nc1cc(NC(=O)c2ccccc2Cl)ccc1Cl)c1ccccc1 -6.35%, O=C(NCc1cccc(F)c1)C1CCN(C(=O)c2sccc2-n2cccc2)CC1 -13.5%, Cc1ccc(C)c(-c2nc(Cn3c(=O)cc(-c4ccccc4)c4c(C)nn(C)c43)c(C)o2)c1 -3.62%, O=c1c2sc3ccccc3c2n(Cc2cccc(C(F)(F)F)c2)c(=O)n1Cc1ccco1 -3.08%, c1nc2nc(Nc3ccc(N4CCOCC4)cc3)nc(NC3CCCCC3)c2[nH]1 -3.69%, Cc1ccc(OCC(=O)Nc2ccc(S(=O)(=O)Nc3ncccn3)cc2)c(C(C)(C)C)c1 -4.7%, Cc1cccc(NC(=O)C2CCCN(S(=O)(=O)c3cccc4nonc34)C2)c1C (configuration not stated) -1.71%, CCN(C(=O)CCc1nc(-c2ccc(C)cc2)no1)c1cc(C)ccc1C -19.5%, CCCCN(C)CCCNC(=O)c1ccc2nc(N3CCCCC3)sc2c1 17.1%, COc1cc2c(cc1NC(=O)COc1cc(C)ccc1C)oc1ccccc12 -5.51%, Cc1cccc(N2CCN(C(=O)c3cn(C4CCCCC4)c(=O)c4c3c3ccccc3n4C)CC2)c1C 9.39%, Cc1ccc(Cn2c(CNS(=O)(=O)c3c(C)cc(C)cc3C)nc3cccnc32)cc1 -5.48%, Cc1c(C)n(Cc2ccccc2)c2ccc(C(=O)NC(C)c3ccccc3)cc12 (configuration not stated) -8.45%, CC(=O)Nc1nonc1-c1nnc(SCC(=O)Nc2ccc(F)cc2F)n1-c1ccccc1 9.47%, CCOC(=O)c1ccc(N2CCN(c3cc(Cl)ccc3C)CC2)c(NC(=O)Nc2cccc(OC)c2)c1 2.91%, Cc1cccc(OCCSc2nc3ccccc3n2CC(=O)N2CCCCC2)c1C -18.5%, CCN(Cc1ccccc1)Cc1c(O)ccc2c(=O)c(-c3ccccc3OC)c(C(F)(F)F)oc12 -5.41%, CCn1ccc2cc(S(=O)(=O)N3CCCN(C(=O)Nc4ccccc4OC)CC3)ccc21 0.728%, CCc1ccc(OCC(=O)N(Cc2cccs2)c2ccc(Cl)cc2)cc1 65.6%, CCOCCCNC(=O)C1CCCN(Cc2nc(-c3ccc(CC)cc3)oc2C)C1 (configuration not stated) 9.4%, CCOC(=O)N1CCN(S(=O)(=O)N2CCCC(C(=O)NCc3cc(OC)ccc3OC)C2)CC1 (configuration not stated) -7.78%, Cc1nc(CC(=O)Nc2ccc(C)c(C)c2)cs1 -3.31%, CCc1ccc(-n2c(SC(CC)C(=O)N(CC)CC)nc3n[nH]c(C)c3c2=N)cc1 (configuration not stated) 6.21%, COc1ccc(N2CC(NC(=O)/C=C\c3ccc(OC)c(OC)c3)CC2=O)cc1 (configuration not stated) 0.835%, CCCCOc1ccc(C2=NC(c3ccncc3)=Nc3ccc(Br)cc3N2)cc1 -26.2%

outcome, inactive:
Cc1cc(C)cc(Nc2cc(C)nc3nncn23)c1, Cc1ccc(Nc2nnc(-c3cc4c(ccc5ccccc54)oc3=O)s2)cc1, COc1ccc(/C=C\c2onc(C)c2S(=O)(=O)N2CCC(C(=O)Nc3cccc(Cl)c3)CC2)cc1, CCOc1ccc(CCNC(=O)c2csc3c2CCCCC3)cc1, CCOC(=O)c1cc(-c2ccccc2)n(CCC(=O)NC2CCCCC2)c1C, CCOC(=O)c1ccc(NC(=O)CN2c3ccccc3S(=O)(=O)c3ccccc32)cc1, Cc1noc(C)c1S(=O)(=O)Nc1ccc(C(=O)Nc2ccc(Br)cc2)cc1, CCCCSCCCNC(=O)c1cn(CC)c2ccc(S(=O)(=O)N3CCCCCC3)cc2c1=O, CCn1c(SCc2ccccc2Cl)nc(=O)c2c(C(=O)OC)cc(C3CC3)nc21, CNC(=O)COc1ccc(NC(=O)c2ccc(-c3nn(C)c(=O)c4ccccc34)cc2)cc1, Cc1nn(S(=O)(=O)c2ccc(Cl)cc2)c(C)c1S(=O)(=O)N1CCCCCC1, COc1cccc(C2C(C(=O)Nc3ccccc3OC)=C(C)Nc3nc4ccccc4n32)c1 (configuration not stated), CCc1ccc(-n2c(-c3ccccc3)c(C)n3c4c(=O)n(C)c(=O)n(C)c4nc23)cc1, Cc1ccc(-c2csc(/C(C#N)=C/c3ccccc3Cl)n2)cc1, Cc1cn2c(=O)cc(COc3ccccc3NC(=O)c3ccccc3C)nc2s1, CCOCCCNC(=O)NC(CCC(C)C)c1c(-n2cccc2)sc2c1CCN(C)C2 (configuration not stated), CCOc1ccccc1CNC(=O)c1ccc2nc(Cc3ccc(OC)cc3)oc2c1, CC(C)(C)C(=O)CSc1nc2ccsc2c(=O)n1Cc1ccccc1F, CN1CCN(CCCNC(=O)c2cnn(-c3ccccc3)c2-n2cccc2)CC1, CCCOC(=O)c1c(C)oc2c1cc(NS(=O)(=O)c1ccc(OCC)cc1)c1ccccc12, COc1ccc(-c2cn3c(n2)sc2cc(C(=O)NC4CCCc5ccccc54)ccc23)cc1 (configuration not stated), Cc1cc(C(=O)O)c2c(=O)n(C)c(=O)n(C)c2n1, Cc1cc2oc(=O)c(CC(=O)NCCc3ccccc3)c(C)c2c2occ(C(C)(C)C)c12, COc1ccc(-c2nc(CS(=O)CC(=O)NCc3ccc(F)cc3)c(C)o2)cc1OC (configuration not stated)
